Results as given in publication PMC4336329 (PLoS ONE, 2015).
The campaign covered roughly 310,000 compounds. About 14,000 (4.5%) showed an effect of 50% or more. The effect is printed as a negative number. The list shows a part of the results.
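Further: peak tail current of the secondary pulse compared with the same well before compound.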

Each molecule was assayed against human ether-à-go-go-related gene (hERG) potassium channel (human, UniProt Q12809) (assay: primary screen, population patch clamp on CHO cells stably expressing hERG).
human ether-à-go-go-related gene (hERG) potassium channel, sequence (Q12809 whole entry, looked up): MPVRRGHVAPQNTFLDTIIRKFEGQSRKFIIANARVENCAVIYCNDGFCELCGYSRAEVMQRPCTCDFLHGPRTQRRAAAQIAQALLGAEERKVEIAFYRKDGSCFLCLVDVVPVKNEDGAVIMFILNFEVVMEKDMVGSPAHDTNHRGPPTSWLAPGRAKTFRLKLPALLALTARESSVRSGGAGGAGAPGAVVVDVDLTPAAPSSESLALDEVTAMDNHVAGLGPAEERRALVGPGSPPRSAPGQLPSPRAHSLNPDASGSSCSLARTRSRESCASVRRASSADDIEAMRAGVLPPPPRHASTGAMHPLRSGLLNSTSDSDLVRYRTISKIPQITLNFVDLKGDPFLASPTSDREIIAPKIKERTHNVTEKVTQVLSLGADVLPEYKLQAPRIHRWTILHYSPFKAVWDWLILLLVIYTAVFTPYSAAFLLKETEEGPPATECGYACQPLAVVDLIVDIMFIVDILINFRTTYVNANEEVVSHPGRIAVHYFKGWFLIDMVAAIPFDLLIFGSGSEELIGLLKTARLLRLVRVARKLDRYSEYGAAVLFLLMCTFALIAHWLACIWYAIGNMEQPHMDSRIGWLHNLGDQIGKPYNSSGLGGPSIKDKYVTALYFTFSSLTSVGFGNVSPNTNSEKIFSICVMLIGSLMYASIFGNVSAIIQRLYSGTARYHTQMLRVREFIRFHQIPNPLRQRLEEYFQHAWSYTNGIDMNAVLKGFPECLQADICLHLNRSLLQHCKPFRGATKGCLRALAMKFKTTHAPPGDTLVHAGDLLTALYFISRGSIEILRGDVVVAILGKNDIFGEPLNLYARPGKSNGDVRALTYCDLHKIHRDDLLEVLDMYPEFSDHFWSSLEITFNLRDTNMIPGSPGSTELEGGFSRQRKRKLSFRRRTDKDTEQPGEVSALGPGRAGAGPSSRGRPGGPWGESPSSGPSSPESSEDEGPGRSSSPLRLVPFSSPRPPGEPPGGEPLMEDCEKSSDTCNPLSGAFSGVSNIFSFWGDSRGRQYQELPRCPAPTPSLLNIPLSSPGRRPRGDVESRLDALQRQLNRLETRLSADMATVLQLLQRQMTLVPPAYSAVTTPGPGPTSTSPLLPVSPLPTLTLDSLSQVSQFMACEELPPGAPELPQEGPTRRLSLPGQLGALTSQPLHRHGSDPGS
In the case of `CC1CCCN(C(C(=O)Nc2ccc(C(C)C)cc2)c2ccc3c(c2)OCO3)C1` (stereo not drawn), the “hERG current change (%, negative = inhibition) at 10uM” value is reported as -1.07%.
`Cc1ccc2cccc(Oc3ccc([N+](=O)[O-])cc3[N+](=O)[O-])c2n1` was tested, and the “hERG current change (%, negative = inhibition) at 10uM” value was -7.96%.
For `CCCCN(CCCC)S(=O)(=O)c1ccc(NC(=O)Cc2cccs2)cc1`, the “hERG current change (%, negative = inhibition) at 10uM” value was 13.5%.
In the case of `CC(=O)OC[C@H]1O[C@H](C/C=N/OC[C@@H](O)[C@H]2O[C@@H]3OC(C)(C)O[C@@H]3[C@H]2O)C=C[C@@H]1OC(C)=O`, the “hERG current change (%, negative = inhibition) at 10uM” value is reported as 6.38%.
For `CC(C)OCc1c(C(=O)OC/C(O)=C(\C#N)c2nc3ccccc3[nH]2)oc2ccccc12`, the “hERG current change (%, negative = inhibition) at 10uM” value was 31.1%.
For `COC(=O)C1=C(c2ccc(F)cc2OCc2ccccc2)C[C@@H]2CC[C@H]1N2C(=O)NCCOc1ccccc1Cl`, the “hERG current change (%, negative = inhibition) at 10uM” value was -0.754%.
For `CCOC(=O)c1ccc(S(=O)(=O)N2CCNCC2)cc1`, the “hERG current change (%, negative = inhibition) at 10uM” value was -16.6%.
`CCOC(=O)CSc1nc2ccc(C)cc2[nH]1.Cl` was tested, and the “hERG current change (%, negative = inhibition) at 10uM” value was 2.21%.
For `Cn1nc(C(F)(F)F)c(-c2ccc(F)cc2)c1NC(=O)c1cccnc1`, the “hERG current change (%, negative = inhibition) at 10uM” value was 4.17%.
`O=C(NCCN1C(=O)S/C(=C\c2ccc(Cl)cc2)C1=O)c1ccc(F)c(S(=O)(=O)N2CCOCC2)c1` was tested, and the “hERG current change (%, negative = inhibition) at 10uM” value was -12.3%.
With `CS(=O)(=O)N(CCc1ccccc1)CC(=O)NCc1ccco1` the “hERG current change (%, negative = inhibition) at 10uM” value was -3.21%.
In the case of `CC(SC(=S)N1CCCC1)C(=O)O` (stereo not drawn), the “hERG current change (%, negative = inhibition) at 10uM” value is reported as 17%.
`O=C(NC(=S)NCCC1=CCCCC1)c1ccccc1Br` was tested, and the “hERG current change (%, negative = inhibition) at 10uM” value was 9.45%.
For `COc1ccc(OC)c(Nc2cc(C)nc3ccc(C)cc23)c1`, the “hERG current change (%, negative = inhibition) at 10uM” value was -68.6%.
`COCCN(C(=O)COC(=O)c1c(NC(C)=O)sc(C)c1C)c1c(N)n(Cc2ccccc2)c(=O)[nH]c1=O` was tested, and the “hERG current change (%, negative = inhibition) at 10uM” value was -31.7%.
`COc1cccc(C2CC(=O)N3CN(c4ccccc4F)CSC3=C2C#N)c1` (stereo not drawn) was tested, and the “hERG current change (%, negative = inhibition) at 10uM” value was 8.76%.
In the case of `CC(C)N1CCNCC1.Cl`, the “hERG current change (%, negative = inhibition) at 10uM” value is reported as 30.1%.
For `COc1ccccc1-n1c(O)c(/C=C2\C=Nc3ccccc32)c(=O)[nH]c1=O`, the “hERG current change (%, negative = inhibition) at 10uM” value was 13%.
In the case of `O=C(CN1c2ccccc2Sc2ccccc21)N/N=C/c1ccccc1`, the “hERG current change (%, negative = inhibition) at 10uM” value is reported as -8.41%.
With `COc1ccc(CCC(=O)NCCS(=O)(=O)N2CCN(c3ccc(F)cc3)CC2)cc1` the “hERG current change (%, negative = inhibition) at 10uM” value was -58.8%.
In the case of `Cc1ccc2nc(SCC3CCCCO3)[nH]c2c1` (stereo not drawn), the “hERG current change (%, negative = inhibition) at 10uM” value is reported as -11.6%.
With `OC(CN1CCN(c2cccc(Cl)c2)CC1)c1ccc(F)cc1` (stereo not drawn) the “hERG current change (%, negative = inhibition) at 10uM” value was -47.2%.
In the case of `CCOC(=O)COc1ccc(C(c2c(C)[nH][nH]c2=O)c2c(C)[nH][nH]c2=O)cc1`, the “hERG current change (%, negative = inhibition) at 10uM” value is reported as 10.4%.
`CS(=O)(=O)Oc1ccc(/C=C2\C(=N)N3N=C(CC(=O)N4CCOCC4)SC3=NC2=O)cc1Cl` was tested, and the “hERG current change (%, negative = inhibition) at 10uM” value was -2.27%.
For `O=C(CSc1nnc(NC(=O)c2ccccc2F)s1)NCc1ccco1`, the “hERG current change (%, negative = inhibition) at 10uM” value was 17.6%.
With `COc1ccc(NC(=S)N2CCC(NC(=O)c3ccco3)CC2)cc1` the “hERG current change (%, negative = inhibition) at 10uM” value was -6.59%.
For `CC(=O)Nc1nnc(-c2ccccn2)o1`, the “hERG current change (%, negative = inhibition) at 10uM” value was 24.6%.
In the case of `Clc1ccc(CSc2ccc(-c3ccccn3)nn2)cc1`, the “hERG current change (%, negative = inhibition) at 10uM” value is reported as -2.04%.
In the case of `CN(CC(=O)NC(=O)NC1CCCCC1)c1ccccc1`, the “hERG current change (%, negative = inhibition) at 10uM” value is reported as 10.2%.
With `Oc1cc(Cc2ccccc2)cnc1CN1CCCCC1` the “hERG current change (%, negative = inhibition) at 10uM” value was -5.73%.
In the case of `Clc1cc(CSc2ccccc2)nc(-c2ccccc2)n1`, the “hERG current change (%, negative = inhibition) at 10uM” value is reported as 3.13%.
For `CCOC(=O)C1=C(COc2ccc(F)cc2Cl)NC(=O)NC1c1cc(C)ccc1C` (stereo not drawn), the “hERG current change (%, negative = inhibition) at 10uM” value was 10.6%.
In the case of `CCC(=O)n1nc(-c2cccnc2)nc1NCc1ccc(OC)cc1`, the “hERG current change (%, negative = inhibition) at 10uM” value is reported as -8.51%.
`NC(=O)COC(=O)CSc1cccc2cccc(Cl)c12` was tested, and the “hERG current change (%, negative = inhibition) at 10uM” value was 14.8%.
In the case of `COC(=O)c1ccc2[nH]ccc2c1`, the “hERG current change (%, negative = inhibition) at 10uM” value is reported as -2.6%.
`CC(Oc1ccccc1)c1ccnc2nc(/N=C/N(C)C)nn12` (stereo not drawn) was tested, and the “hERG current change (%, negative = inhibition) at 10uM” value was 13.7%.
For `CCOC(=O)C1CCCN(C(=O)COc2ccc(N(C)S(=O)(=O)c3ccc(C)cc3)cc2)C1` (stereo not drawn), the “hERG current change (%, negative = inhibition) at 10uM” value was -56.8%.
In the case of `O=C(NCCc1ccccc1)c1cc(S(=O)(=O)N2CCOCC2)ccc1F`, the “hERG current change (%, negative = inhibition) at 10uM” value is reported as -15.5%.
In the case of `COc1cc(C(=O)NCCOc2ccc(F)cc2)c(Br)c(OC)c1OC`, the “hERG current change (%, negative = inhibition) at 10uM” value is reported as 3.42%.
`O=C(Nc1ccccc1)c1ccc[nH]1` was tested, and the “hERG current change (%, negative = inhibition) at 10uM” value was 5%.
With `COCCn1c(C)cc(C(=O)CSc2nnc3ccccn23)c1C` the “hERG current change (%, negative = inhibition) at 10uM” value was 10.3%.
`Cc1cccc(Oc2ccc(NC(=O)c3ccccc3C(=O)O)cc2)c1` was tested, and the “hERG current change (%, negative = inhibition) at 10uM” value was -4.69%.
`COc1ccccc1NC(=S)N1C2CCC1CC(NC(=O)NC13CC4CC(CC(C4)C1)C3)C2` (stereo not drawn) was tested, and the “hERG current change (%, negative = inhibition) at 10uM” value was -2.49%.
With `O=C1CCCCC1c1cccc2ccccc12` (stereo not drawn) the “hERG current change (%, negative = inhibition) at 10uM” value was -0.229%.
With `CCOCCCNC(=O)c1cc(-c2ccc(Br)s2)nc2ccccc12` the “hERG current change (%, negative = inhibition) at 10uM” value was 15%.
